Measured values reported in the supplement of paper PMC10441789.
The other results are listed elsewhere or left out. Antibody binding of pooled human sera (four to six donors per pool; dilution not stated) to peptides of the Trypanosoma cruzi antigen TSSA on microarrays. Quantile-normalised fluorescence in arbitrary units, mean of duplicate arrays; higher = more binding. No active / inactive call. The uninfected pools are read here as the healthy donors of the same country. The strongest signals lie near the top of the scale (about 60,000).

tested on: pooled sera of chronic Chagas disease patients, Argentina; experiment: antibody binding signal (normalised fluorescence) (arbitrary fluorescence units); higher = stronger serum antibody binding to peptide
Protocol: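 Microarray of 15-residue peptides over residues 30-55 of Trypanosoma cruzi TSSAII, each with 1 to 10 substitutions at naturally variable positions, probed with one serum pool per country.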

| Sequence | antibody binding signal |
| --- | --- |
| SGKENKTAAGETPSP | 2950 |
| SGTEKKAATGGTPSP | 1960 |
| EKKAATGEAPSQSGA | 21500 |
| KKAATGGAPSQPGAS | 602 |
| SGKDKKTAAGGTPSQ | 494 |
| SSTPPSGTDNKPAAG | 53900 |
| GKEKKTAAGGTPSPP | 1370 |
| KEKKAATGGAPSPSG | 449 |
| TEKKPAAGGAPSPPG | 1090 |
| TENKAAAGGAPSPSG | 38500 |
| GTEKKPAAGEAPSQP | 8440 |
| DKKPATGEAPSPPGA | 44600 |
| TPPSGTDKKTAAGGA | 24900 |
| GTEKKTATGGTPSPP | 1300 |
| GKENKAATGGTPSPS | 2390 |
| GTENKAATGGTPSQS | 37800 |
| DNKTAAGGAPSQPGA | 312 |
| TENKTAAGEAPSQPG | 22300 |
| PPSGTDKKPATGETP | 34100 |
| KENKAATGGAPSQPG | 315 |

| Sequence | antibody binding signal |
| --- | --- |
| KTAAGETPSQSGASS | 148 |
| GKENKPATGETPSPP | 35700 |
| GKDNKTAAGGTPSQP | 1180 |
| SSTPPSGTENKTAAG | 57200 |
| TPPSGTENKAAAGET | 43200 |
| ENKPATGGTPSQSGA | 893 |
| PPSGKDKKTATGETP | 782 |
| GTDNKPATGEAPSPP | 44800 |
| GTEKKPAAGETPSPS | 3120 |
| GKENKPATGGTPSQS | 1610 |
| KDKKAATGGTPSQPG | 337 |
| DKKAAAGEAPSPSGA | 965 |
| KAAAGGTPSQPGASS | 200 |
| TEKKPAAGGAPSQPG | 1190 |
| NKAAAGGAPSQPGAS | 341 |
| KDNKPATGETPSPSG | 40300 |
| PPSGKEKKTATGETP | 1860 |
| TSSTPPSGTENKTAA | 52400 |
| GKDNKAATGGAPSPS | 736 |
| TENKAATGEAPSPSG | 33300 |
